Assay results as given in the supplement of paper PMC10126150.
Values marked as one replicate rest on one cluster of the flow cell; about a third of the high ones do not repeat.

Tested on: ATP
Experiment: switch fluorescence ratio, 500 uM ATP over buffer (Cy3 cluster intensity, sum of 5 cycles each) (fold (ratio)); higher = stronger signal-on switching upon ATP binding; sequences stand for … in TCGTCGGCAGCGTCAGATGTGTATAAGAGACAGTTTTTTTTTTTTTTTTTTTTTTTTT…TC
Settings: aptamer strand: ATP DNA aptamer (quencher-CACCTGGGGGAGTATTGCGGAGGAAGG + anchor), 100 nM annealed; ATP concentration: 500 uM; one replicate
How it was run: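 Clusters with intensities outside 100-1000 RFU were excluded. The remaining Cy3-labelled switching-strand clusters on a modified Illumina MiSeq flow-cell had been annealed to 100 nM quencher-labelled ATP aptamer and imaged in selection buffer, then after 15 min with 500 uM ATP at 22 °C, for five cycles separated by NaOH stripping and re-annealing. The fluorescence ratio, averaged per switch-domain sequence, is each cluster's summed target-cycle Cy3 intensity over its summed buffer-cycle Cy3 intensity.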
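Further: ATP exposure 15 min at 22 °C before imaging.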

Row | Sequence | switch fluorescence ratio
1 | AGCGCTACAG | 1.02
2 | GATCAATAAA | 0.981
3 | TTCAAGCTCG | 0.986
4 | GTACGTCTCG | 0.999
5 | TTGTACTATG | 1.01
6 | ACGCCCTTCG | 1.19
7 | AAAAACTTGG | 1.08
8 | GAAGGAGTAC | 1.06
9 | ATGGACCAGC | 1.04
10 | TAGCTTACTT | 1.05
11 | GTGAGATTTG | 0.999
12 | CTTTGATAAA | 0.979
13 | GCACGAACAC | 1.4
14 | GCGAAAAAAC | 0.951
15 | AATCTGTGGA | 1.01
16 | ATGACGTCTT | 0.965
17 | GTATCAGTTG | 0.991
18 | CTTGACTGG | 1.02
19 | TATAATCTCA | 0.996
20 | ACCAGATGAT | 0.999
21 | TTCGATTAAC | 1.02
22 | GAGTATCGGA | 0.949
23 | GCAAGTGCTG | 1.01
24 | TTTCATCCTA | 1.2
25 | TAGTGATATA | 0.982

Row | Sequence | switch fluorescence ratio
26 | TGCCTAACCA | 0.946
27 | TTCAGGTGAT | 1.43
28 | CCTGGACGAA | 1.04
29 | GAGCCTCCTC | 1.11
30 | CTCCACCGCT | 3.64
31 | TCGGACCTTG | 0.979
32 | ATGAACGATA | 1.06
33 | TAACCGCCGA | 1.13
34 | CATGCCCGTT | 0.986
35 | CGGGGCTTGA | 1
36 | CCTTGGCGGT | 1.64
37 | ATGGACGGA | 1.14
38 | CTTTACACAT | 1.08
39 | CGACCGACGA | 1.66
40 | TTCGGTGTAC | 1.01
41 | CGGGCTTTTG | 0.962
42 | TGTTGTGAGC | 1.01
43 | ATAAGGAATT | 1.02
44 | TCCAAACGTG | 0.998
45 | TTACGGAACC | 1.31
46 | TTAGTCCATC | 1.01
47 | TTGCGCATT | 1.04
48 | ATCCCCTTGG | 1.85
49 | GAGAAGAG | 1.04
50 | GCGCCCCGGG | 1.04

Row | Sequence | switch fluorescence ratio
51 | ATTGGAGTTG | 0.924
52 | GACGCCGTG | 1.01
53 | TCAAATTCTC | 1.01
54 | CCATCATTTG | 1.03
55 | TATCAAGGTA | 0.973
56 | ATAGTAATAT | 1.08
57 | ACACGGAATT | 1.07
58 | CCGCTGTATT | 2.27
59 | TAGGCGGGCA | 1.03
60 | TGACCTAATG | 1
61 | AGTCCTAATC | 1.02
62 | ATTCGTAGAC | 1.09
63 | ACGCTGTAGT | 1.02
64 | AGGTAACGGT | 1.02
65 | TATAAGGATA | 0.991
66 | AAGTTACTTT | 1.02
67 | ACTTCGTTTC | 1.09
68 | GTATCGGGTT | 0.947
69 | TTGATTCTTA | 0.964
70 | CAGAAGGAG | 0.995
71 | TGAATGCTC | 1.01
72 | CTGGCGTACT | 1.01
73 | GGTCGATGTA | 0.931
74 | CCATTAACAG | 1.01
75 | TTCGCGGGAA | 1.06

Row | Sequence | switch fluorescence ratio
76 | AATGCTTCTA | 0.978
77 | TTCGTCGGTT | 1.01
78 | TTGTAATACA | 1.08
79 | GAGACAAAAA | 1
80 | ACTGTACTAT | 1.45
81 | ACGGTGACTT | 1.05
82 | CGCTATGGTG | 0.969
83 | GTAGGGTTAG | 0.956
84 | GGCAATTACT | 3.48
85 | TTCGAGGATT | 0.993
86 | GACCATAGCG | 1.11
87 | AAGACTGCTA | 1.08
88 | TGATAGGGAA | 0.996
89 | AGGCCCGTAT | 1.11
90 | CATCGAGCTC | 1
91 | GTTTGAAGTC | 0.946
92 | CATCGGTGTA | 0.985
93 | TTCTCGGAAG | 1.01
94 | AGTGTGCCGG | 0.96
95 | TCACTCGGGG | 0.961
96 | CTTTATGCTT | 0.954
97 | GCTAATATTC | 1.02
98 | TTCCTCCTGT | 1.01
99 | AGTTGATCAA | 1.01
100 | CGCGGGGTTC | 1.04
